# According to PubChem BioAssay AID1476 (National Center for Advancing Translational Sciences (NCATS), 2009):
# In all, about 200,000 compounds went through this assay and about 4,500 (2.2%) were called active. The inconclusive results got no clear call from the source; some entries with a clear call stand among them for comparison. Calls follow the shape of the dose curve; as a rule, active = well fitted inhibition curve with a large enough effect; inconclusive = small, poorly fitted or top-dose-only effect, or effect the other way; inactive = flat fitted curve, though single readings scatter. A potency beside an inconclusive call is a rough fit, not a confirmed value.
# Biological target: Cruzipain (Trypanosoma cruzi) (UniProt P25779)
# Test: qHTS Assay for Promiscuous and Specific Inhibitors of Cruzain (without detergent); also: nearly all actives have a fitted effect of over 40% in size;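 as to max response, negative = inhibition: plate controls were enzyme without inhibitor for no effect and buffer without enzyme for full effect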
# Conditions: purified cruzain, Z-FR-AMC fluorescence, no detergent
# How it was run: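 Detergent-free condition (0.00005% Triton X-100) in acetate buffer pH 5.5 with DTT. 1.5 nM enzyme and compound were pre-mixed 15 min, then 2 uM Z-FR-AMC substrate added; reaction progress from fluorescence change between first and third reads (60 s).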
# Potency is read from the fitted curve at half-maximal effect; tags tell the direction and shape of the fitted curve.
# Sequence of UniProt P25779 (P25779 whole entry, looked up): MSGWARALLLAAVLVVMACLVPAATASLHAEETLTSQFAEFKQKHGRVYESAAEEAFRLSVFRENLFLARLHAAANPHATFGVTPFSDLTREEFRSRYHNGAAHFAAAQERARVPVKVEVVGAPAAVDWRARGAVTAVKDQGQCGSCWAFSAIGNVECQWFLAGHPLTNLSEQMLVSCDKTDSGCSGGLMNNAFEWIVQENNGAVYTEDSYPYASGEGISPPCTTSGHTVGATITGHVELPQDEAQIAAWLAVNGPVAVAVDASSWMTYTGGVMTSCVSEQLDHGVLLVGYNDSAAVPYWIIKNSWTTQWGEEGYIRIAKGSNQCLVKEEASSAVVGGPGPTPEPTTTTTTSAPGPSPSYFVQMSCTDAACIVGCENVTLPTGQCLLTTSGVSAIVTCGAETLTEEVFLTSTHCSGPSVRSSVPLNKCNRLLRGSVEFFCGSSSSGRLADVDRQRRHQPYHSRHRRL
Structure (SMILES),Potency,"max response, negative = inhibition"
COC(=O)c1cc(NC(=O)c2cc3sccc3n2Cc2ccc(Cl)cc2)cc(C(=O)OC)c1,active: 7.94 µM,
CCOCc1cc(CN2CCN(c3ccccc3OC)CC2)c(O)c2ncccc12,"inconclusive: 0.0398 µM [activator, full curve, poor fit]",
O=C(c1nc2n(n1)C(c1ccc(Cl)cc1)C=C(c1ccccc1)N2)N1CCOCC1 (stereo not given),"inconclusive: 39.8 µM [activator, single point]",
COc1cccc(/C=N/NC(N)=S)c1OCc1cccc(Cl)c1,active: 5.01 µM,
COc1ccc(C(=O)/C=C/c2cn(CC(O)CN3CCc4ccccc43)c3ccccc23)cc1 (stereo not given),active: 6.31 µM,
Cc1cc(Cl)cc(Br)c1OCCCN1C(=O)NC(C)(C)C1=O,"inconclusive: 31.6 µM [activator, single point]",
CCc1ccccc1NC(=O)CCCN1C(=O)CCn2nc(-c3cn(C)c4ccccc34)cc21,"inconclusive: 15.8 µM [activator, partial curve]",
COc1cc(Nc2nc(SCc3ccccc3Cl)nc3ccccc23)cc(OC)c1,active: 15.8 µM,
CCOc1ccc(N2C(=O)c3[nH]nc(-c4ccc(OC)cc4)c3C2c2cccs2)cc1 (stereo not given),"inconclusive: 25.1 µM [inhibitor, single point]",
COCCCNC(=O)c1ccc2c(c1)N(Cc1ccccc1F)C(=O)c1ccccc1S2=O (stereo not given),"inconclusive: 39.8 µM [activator, single point]",
O=c1c(-c2cccs2)nc2cnc(Oc3ccccc3)nc2n1Cc1cccs1,"inconclusive: 3.98 µM [inhibitor, full curve, poor fit]",
COc1ccc(-c2c(C)c3ccc(O)c(CN4CCCC(C)C4)c3oc2=O)cc1OC (stereo not given),,inactive: -7.75%
O=C(CSc1nnc(CNC(=O)C23CC4CC(CC(C4)C2)C3)n1-c1ccccc1)Nc1ccc(F)cc1,"inconclusive: 25.1 µM [activator, single point]",
N#C/C(=C\c1cc(Cl)cc(Cl)c1O)C(=O)NC1CCCCC1,"inconclusive: 31.6 µM [inhibitor, single point]",
O=C1CCc2cc(S(=O)(=O)NC(C(=O)Nc3cccc(F)c3)c3ccccc3)ccc2N1 (stereo not given),,inactive: -3.03%
COc1ccc(NC(=O)CSc2nnc(Cc3cccn3C)n2-c2ccc(F)cc2)cc1,"inconclusive: 25.1 µM [activator, single point]",
COc1cccc(NC(=O)CSc2nc3ccccc3c(=O)n2Cc2cccs2)c1,"inconclusive: 39.8 µM [inhibitor, single point]",
O=C(Cn1c(=O)n(Cc2nc(-c3ccccc3)no2)c(=O)c2ccccc21)Nc1cccc(Cl)c1,"inconclusive: 25.1 µM [inhibitor, single point]",
Cc1ccc(C)c(Nc2nnc(-c3ccc(C)c(S(=O)(=O)NCC4CCCO4)c3)c3ccccc23)c1 (stereo not given),,inactive: 3%
Oc1ccccc1Nc1nc2ccccc2n2nnnc12,"inconclusive: 25.1 µM [inhibitor, single point]",
Cc1ccc(C(=O)NCCCNc2ccc(C(F)(F)F)cc2[N+](=O)[O-])cc1,"inconclusive: 12.6 µM [inhibitor, partial curve, poor fit]",
O=C(NCCC1=CCCCC1)C1CCN(C(=O)N2CCOc3ccc(Cl)cc32)CC1,,inactive: 2.63%

Structure (SMILES),Potency,"max response, negative = inhibition"
CN(Cc1ccccc1)c1ccc(-c2nc(-c3ccncc3)no2)cc1[N+](=O)[O-],,inactive: 11.2%
Cc1cc(C)cc(C(=O)NCC(c2ccc(N(C)C)cc2)N2CCCC2)c1 (stereo not given),,inactive: -0.172%
COc1cc(C(=O)Nc2cccc(-c3nc4cc(C)ccc4o3)c2)cc(OC)c1OC,"inconclusive: 20 µM [activator, partial curve]",
O=C(NCc1ccco1)c1ccc2c(c1)N(Cc1ccc(Cl)cc1)C(=O)c1ccccc1S2(=O)=O,active: 25.1 µM,
CCOc1ccc(NC(=NCc2ccc3c(c2)OCO3)SC2CC(=O)N(c3ccc(OCC)cc3)C2=O)cc1 (stereo not given),"inconclusive: 25.1 µM [inhibitor, single point]",
Cc1cc(/C=C2\C(=N)N3C(SCc4ccccc4)=NSC3=NC2=O)c(C)n1Cc1ccccc1,active: 3.16 µM,
Cc1cccc(CSc2cccc3cccnc23)c1,,inactive: 7.62%
COc1ccc(NC(=O)/C(C#N)=C/c2c(C)nn(-c3ccc(F)cc3)c2Cl)cc1Cl,"inconclusive: 39.8 µM [inhibitor, single point]",
COc1ccc(C(=O)Nc2ccc3c(c2)CCCN3S(=O)(=O)c2ccc(C)cc2)c(OC)c1,"inconclusive: 39.8 µM [inhibitor, single point]",
COc1ccccc1CN(Cc1cc2cc(C)ccc2[nH]c1=O)Cc1nnnn1CC1CCCO1 (stereo not given),"inconclusive: 39.8 µM [activator, single point]",
N#C/C(=C\c1ccccc1)C(=O)Nc1cc(S(=O)(=O)N2CCOCC2)ccc1N1CCCC1,"inconclusive: 39.8 µM [activator, single point]",
C[C@](O)(c1ccccc1)c1nccc2ccccc12,,inactive: -2.51%
C=C(C)c1cccc(C(C)(C)NC(=O)N2CCN(c3ccccc3OC)CC2)c1,"inconclusive: 25.1 µM [activator, single point]",
O=C(CCCN1C(=O)/C(=C/c2ccccc2Cl)SC1=S)Nc1ccccn1,"inconclusive: 31.6 µM [inhibitor, single point]",
CCOCCCNC(=O)c1cn(CC(C)C)c(=O)c2c1c1ccccc1n2C,"inconclusive: 15.8 µM [activator, partial curve]",
COc1cccc(NC(=O)Cn2nnc(C(=O)NCc3ccc4c(c3)OCO4)c2N)c1,"inconclusive: 25.1 µM [inhibitor, single point]",
COc1ccc(-c2[nH]c3c(c2-c2c(-n4cccc4)n(C)c(=O)[nH]c2=O)c(=O)[nH]c(=O)n3C)cc1F,,inactive: 2.21%
CC1CCc2c(sc3nc(CN4CCOCC4)nc(Sc4ccccc4)c23)C1 (stereo not given),"inconclusive: 25.1 µM [activator, single point]",
COc1ccccc1Nc1nc(N)nc(N)c1S(=O)(=O)c1ccccc1,"inconclusive: 31.6 µM [inhibitor, single point]",
N#Cc1ccc(CN2CCC3(CC2)CCN(S(=O)(=O)c2ccccc2)CC3)cc1,,inactive: 27.4%
COc1cccc(NC(=O)/C(C#N)=C/c2c(C)n(Cc3ccccc3)c3ccccc23)c1,active: 7.94 µM,
CCOC(=O)c1c(C)[nH]c(C)c1S(=O)(=O)N1CCCC(C(=O)Nc2cccc(CC)c2)C1 (stereo not given),"inconclusive: 39.8 µM [activator, single point]",

Structure (SMILES),Potency,"max response, negative = inhibition"
COc1ccc(N=C2NC(=O)S/C2=C\c2ccc(N(C)C)cc2)cc1,"inconclusive: 31.6 µM [inhibitor, single point]",
Cc1c2cccc(Sc3ccccc3)c2c2c3c(cccc13)[S+](c1ccccc1)C2 (stereo not given),active: 2.51 µM,
Cc1ccc(N2CCN(Cc3nnc(-c4ccccc4F)o3)CC2)c(C)c1,"inconclusive: 39.8 µM [activator, single point]",
COc1cc(C)c(C(=O)Oc2cc(C)c(C(=O)O)c(O)c2C)c(OC)c1C,"inconclusive: 25.1 µM [activator, single point]",
CCn1c2ccccc2c2cc(NC(=O)C3CCN(S(=O)(=O)c4cccs4)CC3)ccc21,"inconclusive: 3.98 µM [activator, single point]",
Cc1ccc(-c2c3c(=O)n(C)c(=O)n(C)c3c3cnc4ccccc4n23)cc1,,inactive: -5.73%
Cc1ccc(S(=O)(=O)CC(=O)Nc2nc3c(C)cccc3s2)cc1,active: 25.1 µM,
Cc1c(Cl)cccc1-n1c(SCC(=O)N(C)Cc2ccccc2)nnc1-c1ccncc1,"inconclusive: 20 µM [activator, partial curve]",
COC(=O)c1ccc2c(=O)n(CCc3ccc(S(N)(=O)=O)cc3)c(SCC(=O)C(C)(C)C)nc2c1,,inactive: 15.7%
CCOc1ccc2nc(NCCCNS(=O)(=O)c3ccccc3)c(C#N)cc2c1,"inconclusive: 31.6 µM [activator, single point]",
Cc1c(C(=O)Nc2ccc(F)cc2)oc2ccc(S(=O)(=O)N3CCCCCC3)cc12,active: 31.6 µM,
CCc1cccc(N2C(=O)CS(=O)(=O)C23C(=O)N(Cc2ccccc2)c2ccc(C)cc23)c1 (stereo not given),active: 1.58 µM,
N#C/C(=N\Nc1cc(Cl)cc(Cl)c1)c1nnc2n1CCCCC2,"inconclusive: 39.8 µM [activator, single point]",
CCc1ccc(NC(=O)c2ccc3ncsc3c2)cc1,,inactive: 0.698%
CSc1ncc(Cl)c(C(=O)C(C#N)c2nc3c(C)cc(C)cc3c(=O)[nH]2)n1 (stereo not given),"inconclusive: 6.31 µM [activator, single point]",
CCCSc1ncc(Cl)c(C(=O)Nc2ccc(S(=O)(=O)N3CC(C)OC(C)C3)cc2)n1 (stereo not given),,inactive: 11.3%
CSCC[C@H](NC(=O)c1cc([N+](=O)[O-])ccc1Cl)c1nc2ccccc2[nH]1,,inactive: -6.91%
CCOC(=O)c1cc(-c2ccccc2)sc1NC(=O)CN1C(=O)NC(CC)(c2ccc(F)cc2)C1=O (stereo not given),active: 10 µM,
CCc1ccccc1NC(=O)C(CC)Sc1nc2cc3c(cc2c(=O)n1Cc1ccco1)OCO3 (stereo not given),,inactive: 2.75%
COCCNC(=O)c1cc2c(=O)n3cccc(C)c3nc2n(Cc2ccncc2)c1=N,"inconclusive: 39.8 µM [inhibitor, single point]",
O=C(N/N=C/C=C/c1ccc([N+](=O)[O-])cc1)C1COc2ccccc2O1 (stereo not given),"inconclusive: 39.8 µM [inhibitor, single point]",
